Among the data in the GPR68 mutational scans of Howard et al. (2025) are cAMP reporter score and surface expression score values, retold here.

Scores with a large standard error are left out. Two further conditions of the source, in which the scores hardly spread, are not listed. Names with del lack the residues named; names with ins carry added residues between the positions named. For part of these data: The concentration of ogerin is not given here.

The chains are these.
B1: GPR68, Q15743 (parent)
chain: MGNITADNSSMSCTIDHTIHQTLAPVVYVTVLVVGFPANCLSLYFGYLQIKARNELGVYLCNLTVADLFYICSLPFWLQYVLQHDNWSHGDLSCQVCGILLYENIYISVGFLCCISVDRYLAVAHPFRFHQFRTLKAAVGVSVVIWAKELLTSIYFLMHEEVIEDENQHRVCFEHYPIQAWQRAINYYRFLVGFLFPICLLLASYQGILRAVRRSHGTQKSRKDQIQRLVLSTVVIFLACFLPYHVLLLVRSVWEASCDFAKGVFNAYHFSLLLTSFNCVADPVLYCFVSETTHRDLARLRGACLAFLTCSRTGRAREAYPLGAPEASGKSGAQGEEPELLTKLHPAFQTPNSPGSGGFPTGRLA

The variants in data set [1] derive from B1. Put plainly: cAMP reporter score (Enrich2 score, wild type = 0); higher = more signal; HEK293T, FACS bins.
The variants in data set [2] derive from B1. Nature of the data set: surface expression score (Enrich2 score, wild type = 0); higher = more signal; HEK293T, FACS bins.

In the case of I163D, the cAMP reporter score in data set [1] (pH 5.5) was -0.406; in data set [1] (pH 6) it was -0.068; in data set [1] (pH 6, modulator: ogerin), -1.08. Further, in data set [2], the surface expression score is 0.512.

With I163L, the cAMP reporter score was 0.829 in data set [1] (pH 5.5); -0.153 in data set [1] (pH 6); 0.998 in data set [1] (pH 6, modulator: ogerin); 0.869 in data set [1] (pH 6.5, modulator: ogerin). Besides, the surface expression score in data set [2] was 0.318.

As for I163Y, the cAMP reporter score was -0.112 in data set [1] (pH 5.5) and 0.789 in data set [1] (pH 6, modulator: ogerin). Besides, the surface expression score in data set [2] is -0.417.

As for I163W, the cAMP reporter score turned out to be 1 in data set [1] (pH 5.5); 3.19 in data set [1] (pH 6); 1.34 in data set [1] (pH 6, modulator: ogerin); 3.67 in data set [1] (pH 6.5, modulator: ogerin). Also, the surface expression score in data set [2] was -0.333.

For I163F, the cAMP reporter score in data set [1] (pH 5.5) came to 0.103; in data set [1] (pH 6) it was 2.61; in data set [1] (pH 6, modulator: ogerin), 0.428; in data set [1] (pH 6.5, modulator: ogerin) it was 0.601. The surface expression score in data set [2] turned out to be 2.44.

Consider I163K, for which the cAMP reporter score in data set [1] (pH 5.5) is 0.284; in data set [1] (pH 6), -0.727; in data set [1] (pH 6, modulator: ogerin), 0.932; in data set [1] (pH 6.5, modulator: ogerin), 0.411. The surface expression score in data set [2] came out at 1.44.

In the case of I163T, the cAMP reporter score in data set [1] (pH 5.5) amounted to 0.448; in data set [1] (pH 6, modulator: ogerin) it was 1.62; in data set [1] (pH 6.5, modulator: ogerin), 3.56. Also, the surface expression score in data set [2] turned out to be 0.868.

As to A147_K148insGSG, the cAMP reporter score in data set [1] (pH 5.5) was -2.12; in data set [1] (pH 6, modulator: ogerin), -1.78; in data set [1] (pH 6.5, modulator: ogerin), -1.39.

In the case of E161_V162insG, the cAMP reporter score in data set [1] (pH 5.5) is 0.478; in data set [1] (pH 6) it was -0.183; in data set [1] (pH 6, modulator: ogerin), -0.106; in data set [1] (pH 6.5, modulator: ogerin) it was -0.493. Moreover, the surface expression score in data set [2] is 1.87.

Regarding A147del, the cAMP reporter score in data set [1] (pH 5.5) was -1.04; in data set [1] (pH 6), -0.656; in data set [1] (pH 6, modulator: ogerin), -1.85; in data set [1] (pH 6.5, modulator: ogerin), -0.747. Moreover, the surface expression score in data set [2] is -1.85.

L157_M158insGS: the cAMP reporter score was -1.12 in data set [1] (pH 5.5); -1.24 in data set [1] (pH 6); -1.29 in data set [1] (pH 6, modulator: ogerin); -1.02 in data set [1] (pH 6.5, modulator: ogerin). Besides, in data set [2], the surface expression score is -0.455.

As for T152_S153insGSG, the cAMP reporter score in data set [1] (pH 5.5) was -1.1; in data set [1] (pH 6, modulator: ogerin), -2.27; in data set [1] (pH 6.5, modulator: ogerin), -1.37. Also, in data set [2], the surface expression score was -1.75.

Regarding F156_L157insGSG, the cAMP reporter score in data set [1] (pH 5.5) is -1.39; in data set [1] (pH 6) it was -0.934; in data set [1] (pH 6, modulator: ogerin), -2.15; in data set [1] (pH 6.5, modulator: ogerin) it was -1.11. In data set [2], the surface expression score was -1.28.

In the case of L157_M158insG, the cAMP reporter score in data set [1] (pH 5.5) is -0.43; in data set [1] (pH 6), -0.256; in data set [1] (pH 6, modulator: ogerin), -0.955; in data set [1] (pH 6.5, modulator: ogerin), -1.46. Besides, the surface expression score in data set [2] is -1.07.

With E164_D165insGSG, the cAMP reporter score is -1.69 in data set [1] (pH 5.5); 0.027 in data set [1] (pH 6); -2.16 in data set [1] (pH 6, modulator: ogerin); -1.36 in data set [1] (pH 6.5, modulator: ogerin). Also, the surface expression score in data set [2] was found to be 0.067.

On to K148_E149insGS, for which the cAMP reporter score in data set [1] (pH 5.5) is -0.408; in data set [1] (pH 6, modulator: ogerin), -2.03; in data set [1] (pH 6.5, modulator: ogerin), -0.589. In data set [2], the surface expression score is -1.91.

Turning to L150_L151insGS, the cAMP reporter score in data set [1] (pH 5.5) was -2.21; in data set [1] (pH 6) it was -0.912; in data set [1] (pH 6.5, modulator: ogerin), -1.42.

On to E149_L151del, for which the cAMP reporter score in data set [1] (pH 5.5) is -1.84; in data set [1] (pH 6), -0.835; in data set [1] (pH 6, modulator: ogerin) it was -1.99; in data set [1] (pH 6.5, modulator: ogerin), -0.673. In addition, in data set [2], the surface expression score was -1.92.

E160_E161insGS: the cAMP reporter score is -0.801 in data set [1] (pH 5.5); 0.071 in data set [1] (pH 6); -0.899 in data set [1] (pH 6, modulator: ogerin); 0.105 in data set [1] (pH 6.5, modulator: ogerin). Also, the surface expression score in data set [2] was -0.141.

V162_I163del: the cAMP reporter score in data set [1] (pH 5.5) was -0.491; in data set [1] (pH 6), -1.28; in data set [1] (pH 6, modulator: ogerin) it was -1.17; in data set [1] (pH 6.5, modulator: ogerin) it was -0.862. Further, the surface expression score in data set [2] was found to be 0.916.

Regarding A147_K148del, the cAMP reporter score in data set [1] (pH 5.5) was -1.44; in data set [1] (pH 6), -1.16; in data set [1] (pH 6, modulator: ogerin), -2.22; in data set [1] (pH 6.5, modulator: ogerin), -1.69. Further, in data set [2], the surface expression score is -2.02.

Consider Y155_F156insGSG, for which the cAMP reporter score in data set [1] (pH 5.5) is -1.8; in data set [1] (pH 6), -0.992; in data set [1] (pH 6, modulator: ogerin) it was -1.95; in data set [1] (pH 6.5, modulator: ogerin), -1.08. In addition, the surface expression score in data set [2] was -1.91.

Y155del: the cAMP reporter score in data set [1] (pH 5.5) is -1.57; in data set [1] (pH 6) it was -0.601; in data set [1] (pH 6.5, modulator: ogerin) it was -1.23. Besides, in data set [2], the surface expression score is 0.003.

For E164_D165insGS, the cAMP reporter score in data set [1] (pH 5.5) was -1.53; in data set [1] (pH 6) it was -0.289; in data set [1] (pH 6, modulator: ogerin), -0.824; in data set [1] (pH 6.5, modulator: ogerin) it was -0.819. For the same variant, the surface expression score in data set [2] came to 0.637.

For the variant I163_E164insG, the cAMP reporter score was -0.497 in data set [1] (pH 5.5); -1.19 in data set [1] (pH 6); 0.323 in data set [1] (pH 6, modulator: ogerin); -0.763 in data set [1] (pH 6.5, modulator: ogerin). Also, in data set [2], the surface expression score was 0.312.

For E161_V162insGSG, the cAMP reporter score is -0.734 in data set [1] (pH 5.5); -1.71 in data set [1] (pH 6, modulator: ogerin); -1.05 in data set [1] (pH 6.5, modulator: ogerin). In addition, the surface expression score in data set [2] was found to be 0.181.

Turning to E160_E161insGSG, the cAMP reporter score is -1.27 in data set [1] (pH 5.5); -1.73 in data set [1] (pH 6); -1.41 in data set [1] (pH 6, modulator: ogerin); -1.44 in data set [1] (pH 6.5, modulator: ogerin). Besides, in data set [2], the surface expression score is -0.352.

H159_E160insG: the cAMP reporter score in data set [1] (pH 5.5) is 0.293; in data set [1] (pH 6) it was 0.318; in data set [1] (pH 6, modulator: ogerin) it was -0.274; in data set [1] (pH 6.5, modulator: ogerin), -0.389. Moreover, in data set [2], the surface expression score stood at 0.59.

Regarding V162_E164del, the cAMP reporter score was -1.18 in data set [1] (pH 5.5); -0.388 in data set [1] (pH 6); -1.2 in data set [1] (pH 6, modulator: ogerin); -1.42 in data set [1] (pH 6.5, modulator: ogerin). Besides, the surface expression score in data set [2] was 2.55.

Turning to I163_E164insGS, the cAMP reporter score in data set [1] (pH 5.5) was 0.262; in data set [1] (pH 6, modulator: ogerin), -1.16; in data set [1] (pH 6.5, modulator: ogerin) it was -0.817. Further, in data set [2], the surface expression score was found to be 0.88.

In the case of E149del, the cAMP reporter score in data set [1] (pH 5.5) was -0.366; in data set [1] (pH 6), -0.086; in data set [1] (pH 6, modulator: ogerin), -1.64; in data set [1] (pH 6.5, modulator: ogerin), -1.2. The surface expression score in data set [2] is -2.22.

Take I154_Y155del: the cAMP reporter score in data set [1] (pH 5.5) was -1.43; in data set [1] (pH 6), -1.81; in data set [1] (pH 6, modulator: ogerin), -1.43; in data set [1] (pH 6.5, modulator: ogerin) it was -1.46. Besides, the surface expression score in data set [2] is -2.09.
